Test results published in PMC4336329 (PLoS ONE, 2015).
Hit rate of the full screen: of about 310,000 compounds, about 2,200 (0.71%) showed an effect of 50% or more. Effects have a minus sign here. Some of the results follow.

biological target: human ether-à-go-go-related gene (hERG) potassium channel (human, UniProt Q12809); experiment: primary screen, population patch clamp on CHO cells stably expressing hERG
Sequence (Q12809 whole entry, looked up): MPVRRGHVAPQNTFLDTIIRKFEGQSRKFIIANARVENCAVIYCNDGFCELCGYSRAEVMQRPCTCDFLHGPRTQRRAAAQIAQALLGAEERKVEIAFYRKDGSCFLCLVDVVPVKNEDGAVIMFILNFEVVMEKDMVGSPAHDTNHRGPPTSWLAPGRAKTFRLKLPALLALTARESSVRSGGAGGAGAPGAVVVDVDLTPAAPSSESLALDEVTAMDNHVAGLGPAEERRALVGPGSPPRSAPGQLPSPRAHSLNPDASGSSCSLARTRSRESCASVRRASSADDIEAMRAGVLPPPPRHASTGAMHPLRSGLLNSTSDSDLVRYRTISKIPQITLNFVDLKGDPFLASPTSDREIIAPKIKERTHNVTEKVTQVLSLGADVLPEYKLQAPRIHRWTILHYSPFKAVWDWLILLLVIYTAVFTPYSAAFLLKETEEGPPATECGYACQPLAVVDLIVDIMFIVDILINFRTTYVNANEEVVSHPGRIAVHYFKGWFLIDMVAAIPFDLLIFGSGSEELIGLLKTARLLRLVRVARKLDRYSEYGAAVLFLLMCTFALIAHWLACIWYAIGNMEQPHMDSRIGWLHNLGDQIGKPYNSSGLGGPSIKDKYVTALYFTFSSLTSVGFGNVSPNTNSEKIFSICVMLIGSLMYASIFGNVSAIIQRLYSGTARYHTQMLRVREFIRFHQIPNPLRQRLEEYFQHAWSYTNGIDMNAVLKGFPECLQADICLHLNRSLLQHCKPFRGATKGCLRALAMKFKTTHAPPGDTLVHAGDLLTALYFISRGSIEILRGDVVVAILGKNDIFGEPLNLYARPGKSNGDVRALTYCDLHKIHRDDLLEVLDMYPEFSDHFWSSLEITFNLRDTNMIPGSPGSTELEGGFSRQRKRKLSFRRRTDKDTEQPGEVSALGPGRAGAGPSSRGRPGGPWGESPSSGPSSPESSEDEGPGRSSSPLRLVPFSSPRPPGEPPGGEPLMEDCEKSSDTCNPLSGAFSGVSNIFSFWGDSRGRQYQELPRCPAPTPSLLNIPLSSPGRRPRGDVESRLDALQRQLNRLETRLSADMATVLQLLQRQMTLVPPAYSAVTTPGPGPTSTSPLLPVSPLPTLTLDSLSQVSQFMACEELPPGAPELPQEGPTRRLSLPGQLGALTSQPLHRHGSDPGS

| SMILES | hERG current change (%, negative = inhibition) at 1uM |
| --- | --- |
| COc1ccc(C(=O)NCCSCc2ccccc2)cc1OC | 12.1% |
| O=C(NCCc1ccc(F)cc1)c1ccc(S(=O)(=O)N2CCCC2)cc1 | 6.34% |
| Cc1c(F)cccc1NS(=O)(=O)c1ccc(OCCNS(C)(=O)=O)cc1 | 13.8% |
| COc1ccc(C(=O)Nc2ccnn2C2CCN(CCC(C)c3ccc(C)o3)CC2)cc1 (stereo not drawn) | -18% |
| COc1ccccc1NC(=O)C(=O)NNS(=O)(=O)c1ccc2ccccc2c1 | 9.63% |
| COc1ccc(NC(=O)N2CCCCC2c2cccnc2)cc1 (stereo not drawn) | 6.63% |
| COc1ccc(OC)c(C2/C(=C(/O)c3ccc(C)cc3)C(=O)C(=O)N2Cc2ccco2)c1 (stereo not drawn) | 13.1% |
| CC1=NN(C(=O)c2ccc(Cn3ccc([N+](=O)[O-])n3)cc2)C(O)(C(F)(F)F)C1 (stereo not drawn) | 8.05% |
| N#Cc1c(-c2ccc(Cl)cc2)c2c([nH]c1=O)-c1ccccc1OC2 | 9.71% |
| CN(NC(=O)c1ccccc1F)c1ccc([N+](=O)[O-])cn1 | 8.26% |
| COC(=O)C(NS(=O)(=O)c1ccc(F)cc1)c1ccccc1 (stereo not drawn) | 9.38% |
| CCOC(=O)c1[nH]cnc1C(=O)Nc1ccc(Cl)cc1 | 8.93% |
| O=C(COC(=O)COc1ccc(Cl)cc1)Nc1ccc2c(c1)OCCO2 | 6.85% |
| Cn1c(O)c(/C=N/NC(=O)c2ccncc2)c(=O)[nH]c1=S | 13.3% |
| CCCCC(=O)Nc1ncc(S(=O)(=O)c2ccc([N+](=O)[O-])cc2)s1 | 18% |
| CCc1ccc(S(=O)(=O)Nc2ccc(Br)cn2)cc1 | 6.9% |
| Cc1noc(C)c1COc1ccc(C(=O)NCCc2ccc(S(N)(=O)=O)cc2)cc1 | -8.6% |
| COc1ccccc1NC(=S)N1CCN(c2ccccc2F)CC1 | 14.9% |
| Cc1csc(=O)n1CC(=O)OCc1nnc(-c2ccccc2)o1 | 9.67% |
| COc1ccccc1C(CNC(=O)c1ccc(NS(=O)(=O)c2ccc(F)c(C)c2)cc1)N1CCCC1 (stereo not drawn) | -7.16% |
| N#Cc1c(N)nc(SCC(=O)NC2CCCCC2)c(C#N)c1-c1ccc(Cl)cc1 | 8.45% |
| COC(=O)c1c(C(=O)OC)c(-c2ccc(C)cc2)n2c1CCC2 | 12.1% |

| SMILES | hERG current change (%, negative = inhibition) at 1uM |
| --- | --- |
| COc1ccc(CNS(=O)(=O)c2c(C)[nH]c(C)c2C(=O)N2CCCC2)cc1 | 10.1% |
| CC(C)CN(C(=O)COC(=O)c1c2c(nc3ccccc13)CCC2)c1c(N)n(Cc2ccccc2)c(=O)[nH]c1=O | 12.7% |
| O=C(C/C=N/OCc1ccccc1F)c1cnc(-c2ccc(Cl)cc2)s1 | 19% |
| O=S(=O)(CCc1nnc(-c2ccccc2)o1)c1ccc2ccccc2c1 | -0.566% |
| COc1cc2c(cc1OC)-c1nnc(-c3cccs3)n1C(C)(C)C2 | -11.4% |
| Fc1ccc2c(c1)C(c1ccncc1)=NNC(c1ccc(Br)cc1)=N2 | 11.4% |
| COc1ccccc1N1CCN(CCCOc2ccc(F)cc2)CC1 | -60.3% |
| Cc1ccc(C(C(=O)NC(C)(C)C)N(Cc2cccnc2)C(=O)C(=O)NC2CCCCC2)o1 (stereo not drawn) | -2.42% |
| CCC(=NCc1cccnc1)c1c(O)n(-c2ccc(C)cc2)c(=O)[nH]c1=O | 9.96% |
| Cc1cc(C)cc(NC(=S)N2CCC(NC(=O)c3ccco3)CC2)c1 | 11.4% |
| O=C(NNS(=O)(=O)c1ccc(Cl)cc1)c1cc(-c2ccccc2)nc2ccccc12 | 13.7% |
| O=C(NCC(=O)N1CCCCCC1)c1ccc(OC(F)F)cc1 | 10.4% |
| NC(=O)c1ccc[n+](CC(=O)c2ccc(F)cc2)c1.[Br-] | 14% |
| COC(=O)c1cccc(S(=O)(=O)N2CCOCC2)c1 | 6.02% |
| Brc1ccc(OCc2ccccc2)c(CNCC2CCCO2)c1.Cl (stereo not drawn) | 0.438% |
| CC(OC(=O)CCCc1nc2ccccc2s1)C(N)=O (stereo not drawn) | 2.95% |
| CC(C)N1CCC(N2CCN(CCCn3cccn3)CC2CCO)CC1 (stereo not drawn) | -2.05% |
| Cc1ccc(C)c(OCCC(=O)OCC(=O)N2CCN(c3ccccc3)CC2)c1 | 1.78% |
| Cc1ccc(C(=O)C2C(c3cccs3)NC(=O)NC2(O)C(F)(F)F)cc1 (stereo not drawn) | 8.28% |
| Cc1ccc(C(=O)OCC(=O)c2c[nH]c3ccccc23)cc1S(=O)(=O)N1CCCCC1 | 0.754% |
| O=C(NCc1ccc2c(c1)OCO2)c1cc(Cl)ccc1Cl | 13.4% |
| CCCn1cc(S(=O)(=O)c2ccc(OC)cc2)c(=O)c2cc(OC)ccc21 | 1.94% |

| SMILES | hERG current change (%, negative = inhibition) at 1uM |
| --- | --- |
| O=C(NCc1ccccc1)c1ccc(/C=N/O)nc1 | 8.57% |
| CCc1ccccc1NC(=O)CSc1nc2[nH]c(=O)cc(O)c2s1 | 13.2% |
| Cc1ccc2c(c1)c1c(n2CC(O)CN2CCOCC2)CCCC1.Cl (stereo not drawn) | 13% |
| NC(=O)C1CCN(C(=O)c2cc3c(s2)CCCC3)CC1 | 0.801% |
| Cc1cccc(NC(=S)NNC(=O)COc2ccc(Cl)cc2Cl)c1 | 3.42% |
| COc1ccc(/C=N/NS(=O)(=O)c2ccccc2)cc1OS(=O)(=O)c1ccc(C)cc1 | 15.8% |
| CCN1CCN(CCNC(=O)c2cn(C(C)c3ccccc3F)nn2)CC1 (stereo not drawn) | 12.6% |
| COc1ccc2cc(C=NS(=O)(=O)c3ccc(C)cc3)n(C)c2c1 | 13.7% |
| CC(C)C1CC(=O)NC(SCC(=O)Nc2ccc(Br)cc2)=C1C#N (stereo not drawn) | 5.76% |
| O=C(C1CCCO1)N1CCN(Cc2c(O)ccc3ccccc23)CC1 (stereo not drawn) | 9.81% |
| CC(=O)Nc1ccc(C(=O)NNC(=O)C2CC2)cc1 | 19.4% |
| C=CCOc1ccc(C(=O)Nc2ccc3c(c2)n(C)c(=O)n3C)cc1 | 4.59% |
| CCCCN(C)CCNC(=O)c1cc2cc3ccc(OC)cc3nc2o1 | 5.74% |
| Cc1cccc(NC(=O)c2ccc(S(=O)(=O)N3CCCCC3C)cc2)n1 (stereo not drawn) | 7.3% |
| CC1(C)OC(=O)C(C(c2ccccc2)C(C#N)C(N)=O)=C(O)O1.CCN(CC)CC (stereo not drawn) | 0.916% |
| O=C(N/N=C/c1cccc(C(F)(F)F)c1)C1CCN(c2ncc(C(F)(F)F)cc2Cl)CC1 | 2.51% |
| CC12CCC(=O)N1C(C(=O)N1CCN(c3ccc(C(F)(F)F)cc3[N+](=O)[O-])CC1)CS2 (stereo not drawn) | -1.99% |
| Cc1ccccc1C(=O)NC1CCN(Cc2ccccc2)CC1 | 2.11% |
| O=C(Nc1ccccc1NC(=O)c1csnn1)c1csnn1 | 18% |
| COc1cc(NC(=O)Cn2nnc(-c3ccccc3N)n2)cc(OC)c1 | 10.9% |
| CC(=O)C1=C(O)C(=O)N(c2ccc(Br)cc2)C1c1ccccc1[N+](=O)[O-] (stereo not drawn) | 0.772% |
| Cc1cc(N2C(=O)C(=O)/C(=C(/O)c3ccc(F)cc3)C2c2ccc(Cl)cc2)no1 (stereo not drawn) | 10.5% |

| SMILES | hERG current change (%, negative = inhibition) at 1uM |
| --- | --- |
| Cc1cc(C)nc(SCC(=O)N/N=C/C=C/c2ccccc2)n1 | -2.91% |
| CC(=O)N1CCN(C(=O)CCC(=O)O)CC1 | 2.11% |
| CCn1cnc2sc(C(=O)Oc3ccc(Br)cc3)c(C)c2c1=O | 8.8% |
| Cc1ccc(S(=O)(=O)C2(C(=O)NCCc3ccccc3)CC2)cc1 | 1.67% |
| Cn1nc(N)nc1N1CCN(c2ccc(F)cc2)CC1 | 10.1% |
| CCCOc1ccc(C(=O)NC2CCSc3ccccc32)cc1 (stereo not drawn) | 8.1% |
| O=C(Cc1c[nH]c2ccccc12)N1CCN(c2ccccc2)CC1 | 13.6% |
| O=C(CCc1ccccc1)Nc1sc2c(c1C(=O)O)CCCC2 | 20.1% |
| COc1ccc(C(=O)NNC(=O)c2ccncc2)cc1[N+](=O)[O-] | 19.8% |
| COc1ccc(NC(=O)CSc2nc(=O)n(CCN3CCOCC3)c3c2CCC3)c(OC)c1 | 1.42% |
| Cc1ccc(C2=NC3(CCCCC3)N=C2SCC(=O)Nc2ccc3c(c2)OCCO3)cc1 | 9.55% |
| O=C1CCCC(=O)C1C(c1ccc(Cl)cc1)C1C(=O)CCCC1=O | 13.5% |
| CC(C)(C)C#CC(CCc1ccccc1)OS(N)(=O)=O (stereo not drawn) | 10.3% |
| COCC(C)n1c(SCc2ccc(C(=O)OC)o2)nc2ccccc2c1=O (stereo not drawn) | 12.7% |
| O=C(NCCc1ccccc1)c1ccc2c(c1)S(=O)(=O)N=C1CCCCCN12 | 10% |
| O=C(Nc1cccc(-c2nc3ccccc3[nH]2)c1)c1ccccn1 | 9.76% |
| Cc1cc(NC(=O)c2ccc(S(=O)(=O)N3CCOCC3)cc2)nc2c1c(=O)oc1ccccc12 | 4.35% |
| CCC(C)NC(=O)c1ccc(CS(=O)(=O)c2ccc(OC)cc2)o1 (stereo not drawn) | 6.38% |
| CCOc1cccc(C(=O)NC(c2ccccc2)C(C)C)c1 (stereo not drawn) | 5.97% |
| COc1ccc(CC(=O)NCC(=O)N/N=C/c2c[nH]c3ccccc23)cc1 | 14% |
| COc1ccc(COC(=O)c2ccc(S(=O)(=O)N3CCCCC3)cc2)cc1OC | 8.5% |
